# The whole screen tested about 310,000 compounds, of which about 14,000 (4.5%) showed an effect of 50% or more. The effect is printed as a negative number. The list shows a part of the results.
# Target: human ether-à-go-go-related gene (hERG) potassium channel (human, UniProt Q12809)
# Experiment: primary screen, population patch clamp on CHO cells stably expressing hERG
# 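Further: peak tail current of the secondary pulse compared with the same well before compound.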
# Chain of human ether-à-go-go-related gene (hERG) potassium channel (Q12809 whole entry, looked up): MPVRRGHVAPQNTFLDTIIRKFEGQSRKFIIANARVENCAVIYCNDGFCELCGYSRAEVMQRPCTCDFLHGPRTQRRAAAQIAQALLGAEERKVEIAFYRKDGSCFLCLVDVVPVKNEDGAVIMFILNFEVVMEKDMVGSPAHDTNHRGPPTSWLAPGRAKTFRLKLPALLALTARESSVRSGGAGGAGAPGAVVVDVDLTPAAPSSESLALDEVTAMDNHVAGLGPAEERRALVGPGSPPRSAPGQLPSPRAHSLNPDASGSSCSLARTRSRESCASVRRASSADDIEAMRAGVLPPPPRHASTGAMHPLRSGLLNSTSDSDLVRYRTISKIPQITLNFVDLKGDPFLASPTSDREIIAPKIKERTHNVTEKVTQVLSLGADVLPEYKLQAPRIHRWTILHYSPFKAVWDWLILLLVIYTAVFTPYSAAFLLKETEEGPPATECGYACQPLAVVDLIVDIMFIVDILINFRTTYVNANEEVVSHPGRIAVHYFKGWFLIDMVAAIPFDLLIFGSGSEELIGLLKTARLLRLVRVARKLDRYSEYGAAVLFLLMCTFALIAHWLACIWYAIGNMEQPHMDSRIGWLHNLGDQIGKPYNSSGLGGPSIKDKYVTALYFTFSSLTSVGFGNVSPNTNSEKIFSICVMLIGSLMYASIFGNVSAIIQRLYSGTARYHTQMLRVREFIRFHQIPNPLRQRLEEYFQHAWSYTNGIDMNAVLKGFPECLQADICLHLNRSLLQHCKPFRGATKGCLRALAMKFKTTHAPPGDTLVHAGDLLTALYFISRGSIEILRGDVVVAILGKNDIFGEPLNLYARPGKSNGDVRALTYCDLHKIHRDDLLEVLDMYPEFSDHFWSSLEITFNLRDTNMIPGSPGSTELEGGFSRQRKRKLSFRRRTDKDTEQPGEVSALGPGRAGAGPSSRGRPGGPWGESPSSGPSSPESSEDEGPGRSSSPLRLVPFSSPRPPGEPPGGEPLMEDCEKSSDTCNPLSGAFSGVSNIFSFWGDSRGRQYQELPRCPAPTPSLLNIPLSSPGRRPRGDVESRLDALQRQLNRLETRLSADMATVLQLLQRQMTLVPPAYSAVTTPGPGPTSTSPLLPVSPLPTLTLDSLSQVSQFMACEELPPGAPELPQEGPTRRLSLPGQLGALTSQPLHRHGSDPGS
row,SMILES,"hERG current change (%, negative = inhibition) at 10uM"
1,Cc1ccc(S(=O)(=O)N2[C@@H](c3ccccc3F)C(C(=O)O)=CC[C@H]2c2ccc(C(C)C)cc2)cc1,15%
2,CCCCOc1ccc(CN2CCN(CC)CC2)cc1,-14.2%
3,CC1CC(C)CN(C(=O)CN2C(=O)NC(c3ccccc3)(c3ccccc3)C2=O)C1 (centres unmarked),-2.74%
4,COc1ccc(CN2CN(C3CCCC3)CSC2=S)cc1,2.66%
5,CC(C)Cc1ccc(C(C)NC(=O)Cc2ccc(S(=O)(=O)N3CCOCC3)s2)cc1 (centres unmarked),11.1%
6,Clc1ccc(NCc2nnc3n2CCCCC3)cc1,-20%
7,CCCCn1c(=O)c(C(=O)Nc2ccsc2C(=O)OC)c(O)c2ccccc21,-2.52%
8,CCC(=O)OCC(=O)c1cc(C)n(-c2ccc(Br)cc2)c1C,-0.544%
9,CCSc1nc(=O)n(-c2ccccc2)c(C)c1C(C)=O,-2.79%
10,CCn1c(SCC(=O)OC)nnc1-c1ccc(C)cc1,12.6%
11,O=C(O)c1ccc2ncc(NC(=O)c3ccc(F)cc3)c(=O)n2c1,8.11%
12,COc1cccc(/C=N/NC(=O)C(=O)N2CCCCCC2)c1O,14.8%
13,Cc1cc(C)c2c(N)c(C(=O)C(C)(C)C)sc2n1,15%
14,Cn1c(=O)[nH]c(=O)c2c1nc(N1CCN(CCO)CC1)n2Cc1ccccc1Cl,-6.38%
15,O=C(CSc1nc2ccsc2c(=O)n1CC1CCC(C(=O)O)CC1)c1ccc(Cl)cc1 (centres unmarked),33.9%
16,CCOc1ccc(NC(=O)c2ccc(NC(=O)COC(=O)Cc3ccccc3)cc2)cc1,20.5%
17,Cc1ccc(S(=O)(=O)N(C)C)cc1NC(=O)CN1C(=O)NC2(CCCCCCC2)C1=O,10.4%
18,COc1ccc(CC(=O)Nc2ccc(S(=O)(=O)Nc3nc(C)cc(C)n3)cc2)cc1,-10.9%
19,CCOC(=O)c1c(NC(=O)CN2CCN(C(=O)c3ccco3)CC2)sc2c1CCCC2,-8.72%
20,COc1ccccc1C(O)c1nccn1C (centres unmarked),18.8%
21,COC(=O)c1sc(NC(=O)COc2cccnc2[N+](=O)[O-])c(C(=O)OC)c1C,3.81%
22,Cn1c(=O)n(Cc2ccccc2Cl)c2ccccc21,0.502%
23,Cc1ccc(S(=O)(=O)N2CCN(S(=O)(=O)c3cccs3)CC2)cc1,-9.86%

row,SMILES,"hERG current change (%, negative = inhibition) at 10uM"
1,O=C(NCCc1ccccc1)C1c2ccccc2C(=O)N1C1CC1 (centres unmarked),-9.2%
2,CCCOc1ccccc1-c1nc(SCCC(=O)O)n[nH]1,-1.54%
3,CO/N=C(\c1ccccc1)c1cccnc1,9.61%
4,C=CCCC(=O)N1CCC(n2nccc2NC(=O)CCCc2ccccc2)CC1,-28.1%
5,CCOc1ccc(OCCCC(=O)NNC(=O)c2ccncc2)cc1,-37.2%
6,COc1cccc(-n2c(SCc3c(C)noc3C)nnc2-c2cccc(S(=O)(=O)N(C)C)c2)c1,-13.3%
7,Cc1ccccc1NC(=O)c1ccc(CSc2ncccn2)cc1,-6.41%
8,CCC(C)NC(=O)CO/N=C/c1ccc(C(=O)OC)cc1 (centres unmarked),3.67%
9,O=C(CNc1cccc2ccccc12)c1ccc([N+](=O)[O-])cc1,-5.78%
10,CC(CC(=O)Nc1ccc(Cl)c([N+](=O)[O-])c1)c1ccccc1 (centres unmarked),-7.4%
11,COCCCNc1nc(N)c([N+](=O)[O-])c(Nc2cc(OC)ccc2OC)n1,18%
12,Cc1ccc2c(c1)C(CCN)C(=O)N2Cc1ccccc1.Cl (centres unmarked),-25%
13,OCC1(Cc2ccc(F)cc2)CCCN(CCc2ccccc2)C1 (centres unmarked),-45.5%
14,CCOC(=O)N1CCC(NC(=O)C2CCCN(S(C)(=O)=O)C2)CC1 (centres unmarked),7.01%
15,COc1cc(-c2c(C#N)c(N)nc3c2CCCC3)ccc1O,10.4%
16,Cc1ccc(C)c(NC(=O)CCC(=O)NNC(=O)c2cccc([N+](=O)[O-])c2)c1,-13.5%
17,CC(=O)Oc1ccc(-c2cc3c(OC(C)=O)cc(OC(C)=O)cc3oc2=O)cc1,14.1%
18,O=C1c2cccnc2-c2ncccc21,6.22%
19,NC(=O)Nc1n[nH]c(-c2ccccc2)n1,19.4%
20,Cn1c(=O)c2ccccc2n(CC(=O)Nc2ccc3c(c2)OCCO3)c1=O,11.1%
21,CCN(CC)S(=O)(=O)c1cc(NC(=O)[C@@H](NC(N)=O)C(C)C)ccc1C,15.5%
22,COC(=O)CCCC1=CC2=C(c3ccccc3)C(=O)C(C)(OC(=O)C3CCCC3)C(=O)C2=CN1Cc1ccco1 (centres unmarked),-56.8%
23,COc1cccc(/C=C2\SC(=O)N(CCC(=O)NNC(=O)c3cccc(Cl)c3)C2=O)c1,3.25%

row,SMILES,"hERG current change (%, negative = inhibition) at 10uM"
1,Cc1ccc(N2OC3C(=O)NC(=O)C3C2c2ccco2)cc1 (centres unmarked),7.89%
2,COc1ccc2sc(-c3ccccc3OC)c(-c3ccc(OC)nc3)c2c1,6.64%
3,O=C(Cc1sc(-c2ccccc2Cl)nc1-c1ccccc1)Nc1ccccc1,11.3%
4,Cc1ccc(-c2cc3nc(-c4ccccc4)cc(N4CCC5(CC4)OCCO5)n3n2)cc1,6.72%
5,O=C(O)CSCC(=O)NCc1ccccc1Cl,22.6%
6,COc1ccccc1/C=C/CN1CCN(Cc2ccc(F)cc2)C(CCO)C1 (centres unmarked),-51%
7,O=C(c1cccc(S(=O)(=O)NCc2ccccc2)c1)N1CCN(c2cccc(C(F)(F)F)c2)CC1,-4.17%
8,Cc1ccc(C(=O)c2ccccc2C(=O)OCC(=O)NC(=O)NC(C)(C)C)cc1,18.8%
9,O=C(Nc1nc2ccc(F)cc2s1)C1=NN(c2ccccc2)C(=O)CC1,-5.92%
10,CC(C)N1CCN(Cc2ccc3c(c2)OCCO3)CC1CCO (centres unmarked),3.63%
11,Clc1ccc(Oc2cnns2)c(Cl)c1,-9.72%
12,CC(=NCCN1CCOCC1)c1c(O)n(-c2ccccc2C)c(=O)[nH]c1=O,-1.88%
13,CCn1cnc2cc(NCc3ccncc3)ccc21,6.89%
14,COc1ccc2c(c1)cc(C(=O)N/N=C/c1c(O)c(C(=O)O)cc3ccccc13)n2C,19.8%
15,N#C/C(=C(/O)CCl)c1nc2c(s1)CCc1ccccc1-2,10.3%
16,COc1ccc(CN2CCNC(=O)C2CC(=O)NCCc2nc(C)c(C)s2)c(OC)c1 (centres unmarked),-13.5%
17,Cl.NC(Cc1ccccc1)C(=O)N1CCCCC1 (centres unmarked),18.8%
18,CCOc1ccccc1N1CC(C(=O)N(CC)CC(=O)Nc2ccc3c(c2)OCCO3)CC1=O (centres unmarked),-6.39%
19,Nc1ccc2c(c1)C(=O)c1ccccc1-2,10.6%
20,COc1ccc(C2CC(c3cccs3)=NN2S(C)(=O)=O)cc1OC (centres unmarked),1.63%
21,Cc1cccc2nc(CSc3nc4cc([N+](=O)[O-])ccc4s3)cn12,-21.7%
22,Cc1ccc(OCc2n[nH]c(=S)n2-c2ccc(Cl)cc2)cc1,18.2%
23,COCCCn1c(=O)c2ccccc2n(Cc2cccc(C)c2)c1=O,-7.42%

row,SMILES,"hERG current change (%, negative = inhibition) at 10uM"
1,CC1(C)Cc2ccccc2C(c2cc3ccccc3oc2=O)=N1,-10.2%
2,CCCCCC(=O)Nc1ccc(N2CCN(C(=O)c3ccccc3)CC2)cc1,-62.8%
3,CCOC(=O)c1cnc2nc(Cc3ccccc3)[nH]n2c1=O,9.17%
4,CCOc1ccccc1N(CC(=O)N1CCCC1)S(C)(=O)=O,17.4%
5,CCOc1ccc(S(=O)(=O)Nc2cccc(-c3ccc(N4CCCCCC4)nn3)c2)cc1,18.7%
6,CC(=O)Oc1ccc(N(c2ccccc2)S(=O)(=O)c2ccc(C)cc2)cc1,14.2%
7,O=c1[nH]ncn1-c1ccccc1C(F)(F)F,11.4%
8,Cc1ccc2cc(CN(CCCO)S(=O)(=O)c3cccc4nsnc34)c(=O)[nH]c2c1,-18.5%
9,O=C(N/C(=C\c1ccc(Br)cc1)c1nc2ccccc2[nH]1)c1ccco1,6.55%
10,Cc1cc(S(=O)(=O)NC2CC(C)(C)NC(C)(C)C2)c(Cl)cc1Cl,-9.78%
11,Cc1ccc(C)c(C(=O)Nc2c(C(N)=O)oc3ccccc23)c1,5.52%
12,Nn1c(SC/C=C/c2ccccc2)nnc1-c1ccco1,-3.58%
13,COCc1nc(-c2ccc(-c3ccc(C)cc3)nc2OC)no1,-2.11%
14,COCCCNC(=O)Cn1nc(-c2ccc(C)cc2)ccc1=O,5.06%
15,C=CCn1c(SCCOc2ccc(OC)cc2)nnc1C(CO)NC(=O)c1ccc(OC)cc1 (centres unmarked),-1.86%
16,CCc1ccc(NC(=O)N[C@H](C(=O)O)C(C)CC)cc1 (some centres unmarked),10.5%
17,CCCCN(C)C(=O)c1cc2cc3cc(OC)ccc3nc2o1,-30.8%
18,COc1ccccc1NC(=O)CC(=O)CSc1nnc(-c2ccc(C)cc2)n1-c1ccccc1,-9.58%
19,COc1ccc(S(=O)(=O)N2CCC(C(=O)N[C@@H](C)C(=O)NC3CCCC3)CC2)cc1,13.4%
20,FC(F)(F)c1nc(SCc2ccc(Cl)cc2Cl)n[nH]1,-0.342%

# From article PMC4336329 (PLoS ONE, 2015)
